This is one part of the list.
What was measured:
Assay in all cases: glycan array binding signal (z-score within array); higher = stronger binding
Details in all cases: glycan notation: IUPAC condensed, linker removed
[1] = target: Gal(b1-3)GalNAc(a1-3)[Fuc(a1-2)]Gal(b1-4)GlcNAc
Procedure, shortened: (§1)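 The binding signal is a Z-score computed within each array. Data were drawn from 3228 arrays in the Consortium for Functional Glycomics database, restricted to those with a known protein sequence. Scores were averaged over arrays of the same protein sequence at different concentrations or buffers, and over linkers, and negative values can be taken as non-binding.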

[2] = target: Gal(b1-3)GalNAc(b1-3)Gal(a1-4)Gal(b1-4)Glc
Procedure, shortened: as §1

[3] = target: Gal(b1-3)GalNAc(b1-4)Gal(b1-4)Glc
Procedure, shortened: as §1

[4] = target: Gal(b1-3)GalNAc(b1-4)[Neu5Ac(a2-3)]Gal(b1-4)Glc
Procedure, shortened: as §1

[5] = target: Gal(b1-3)GlcNAc
Procedure, shortened: as §1

[6] = target: Gal(b1-3)GlcNAc(a1-6)Gal(b1-4)GlcNAc
Procedure, shortened: as §1

[7] = target: Gal(b1-3)GlcNAc(b1-2)Man(a1-3)[Gal(b1-3)GlcNAc(b1-2)Man(a1-6)]Man(b1-4)GlcNAc(b1-4)GlcNAc
Procedure, shortened: as §1

[8] = target: Gal(b1-3)GlcNAc(b1-2)Man(a1-3)[Gal(b1-3)GlcNAc(b1-2)Man(a1-6)]Man(b1-4)GlcNAc(b1-4)[Fuc(a1-6)]GlcNAc
Procedure, shortened: as §1

[9] = target: Gal(b1-3)GlcNAc(b1-3)Gal(b1-3)GlcNAc
Procedure, shortened: as §1

[10] = target: Gal(b1-3)GlcNAc(b1-3)Gal(b1-4)Glc
Procedure, shortened: as §1

[11] = target: Gal(b1-3)GlcNAc(b1-3)Gal(b1-4)GlcNAc
Procedure, shortened: as §1

[12] = target: Gal(b1-3)GlcNAc(b1-3)Gal(b1-4)GlcNAc(b1-6)[Gal(b1-3)GlcNAc(b1-3)]Gal(b1-4)Glc
Procedure, shortened: as §1

[13] = target: Gal(b1-3)GlcNAc(b1-3)Gal(b1-4)[Fuc(a1-3)]GlcNAc(b1-6)[Gal(b1-3)GlcNAc(b1-3)]Gal(b1-4)Glc
Procedure, shortened: as §1

[14] = target: Gal(b1-3)GlcNAc(b1-3)GalNAc
Procedure, shortened: as §1

[15] = target: Gal(b1-3)GlcNAc(b1-6)Gal(b1-4)GlcNAc
Procedure, shortened: as §1

[16] = target: Gal(b1-3)[Fuc(a1-4)]GlcNAc
Procedure, shortened: as §1

[17] = target: Gal(b1-3)[Fuc(a1-4)]GlcNAc(b1-2)Man(a1-3)[Gal(b1-3)[Fuc(a1-4)]GlcNAc(b1-2)Man(a1-6)]Man(b1-4)GlcNAc(b1-4)GlcNAc
Procedure, shortened: as §1

[18] = target: Gal(b1-3)[Fuc(a1-4)]GlcNAc(b1-2)Man(a1-3)[Gal(b1-3)[Fuc(a1-4)]GlcNAc(b1-2)Man(a1-6)]Man(b1-4)GlcNAc(b1-4)[Fuc(a1-6)]GlcNAc
Procedure, shortened: as §1

[19] = target: Gal(b1-3)[Fuc(a1-4)]GlcNAc(b1-3)Gal(b1-3)[Fuc(a1-4)]GlcNAc
Procedure, shortened: as §1

[20] = target: Gal(b1-3)[Fuc(a1-4)]GlcNAc(b1-3)Gal(b1-4)GlcNAc
Procedure, shortened: as §1

[21] = target: Gal(b1-3)[Fuc(a1-4)]GlcNAc(b1-3)Gal(b1-4)[Fuc(a1-3)]GlcNAc
Procedure, shortened: as §1

[22] = target: Gal(b1-3)[GlcNAc(b1-6)]GalNAc
Procedure, shortened: as §1

[23] = target: Gal(b1-3)[Neu5Ac(a2-6)]GalNAc
Procedure, shortened: as §1

[24] = target: Gal(b1-3)[Neu5Ac(a2-6)]GlcNAc(b1-6)Gal(b1-4)Glc
Procedure, shortened: as §1

[25] = target: Gal(b1-3)[Neu5Ac(b2-6)]GalNAc
Procedure, shortened: as §1

[26] = target: Gal(b1-4)GalNAc(a1-3)[Fuc(a1-2)]Gal(b1-4)GlcNAc
Procedure, shortened: as §1

[27] = target: Gal(b1-4)GalNAc(b1-3)[Fuc(a1-2)]Gal(b1-4)GlcNAc
Procedure, shortened: as §1

[28] = target: Gal(b1-4)Glc
Procedure, shortened: as §1

[29] = target: Gal(b1-4)Glc6S
Procedure, shortened: as §1

[30] = target: Gal(b1-4)GlcNAc
Procedure, shortened: as §1

[31] = target: Gal(b1-4)GlcNAc(a1-6)Gal(b1-4)GlcNAc
Procedure, shortened: as §1

[32] = target: Gal(b1-4)GlcNAc(b1-2)Man(a1-3)Man(b1-4)GlcNAc(b1-4)GlcNAc
Procedure, shortened: as §1

[33] = target: Gal(b1-4)GlcNAc(b1-2)Man(a1-3)[Gal(b1-4)GlcNAc(b1-2)Man(a1-6)]Man(b1-4)GlcNAc(b1-4)GlcNAc
Procedure, shortened: as §1

[34] = target: Gal(b1-4)GlcNAc(b1-2)Man(a1-3)[Gal(b1-4)GlcNAc(b1-2)Man(a1-6)]Man(b1-4)GlcNAc(b1-4)[Fuc(a1-6)]GlcNAc
Procedure, shortened: as §1

[35] = target: Gal(b1-4)GlcNAc(b1-2)Man(a1-3)[GlcNAc(b1-2)Man(a1-6)]Man(b1-4)GlcNAc(b1-4)GlcNAc
Procedure, shortened: as §1

[36] = target: Gal(b1-4)GlcNAc(b1-2)Man(a1-3)[Man(a1-6)]Man(b1-4)GlcNAc(b1-4)GlcNAc
Procedure, shortened: as §1

[37] = target: Gal(b1-4)GlcNAc(b1-2)Man(a1-6)Man(b1-4)GlcNAc(b1-4)GlcNAc
Procedure, shortened: as §1

B1: exo-alpha-sialidase (Propionibacterium acnes), Q6A7G1 (protein)
chain: GSHMSGRAPAPVAATTQPKLVTGDITSTDQSGTNLFFGKKIVRNARGAIMKVDRTWPAAVPAPLPDVRADSSTRMLLGPVVDLAVNEHPEGVFYRIPALATASNGDLLASYDLRPGSAGDAPNPNSIVQRRSRDNGRTWGPQTVIHAGTPGRRKVGYSDPSYLVDPATGRILNFHVKSYDRGFATSEVGTDPDDRHVLHAEVSTSTDNGHTWTHRDITREITSDPTTRTRFVASGQGIALLHGPHAGRLIAQMTVRNSVGQQAQSIYSDDHGITWHAGNPVGRMMDENKVVELSDGTLMLNSRDAARSGRRKVAYSQDGGLTWGPVKLVDDLIDPTNNAQIIRAYPNARAGSAKARILLFTNARNATERVNGTLSVSCDDGRTWVSHQTYMPGEVGYTTAAVQSDGALGVLWERDGIRYSTIPMGWLNSVCPLAPSGRPTSGKPTSGTSLPPTAT
[1]
  glycan array binding signal (z-score): -0.352
[2]
  glycan array binding signal (z-score): -0.324
[3]
  glycan array binding signal (z-score): -0.337
[4]
  glycan array binding signal (z-score): -0.331
[5]
  glycan array binding signal (z-score): -0.338
[6]
  glycan array binding signal (z-score): -0.353
[7]
  glycan array binding signal (z-score): -0.364
[8]
  glycan array binding signal (z-score): -0.358
[9]
  glycan array binding signal (z-score): -0.354
[10]
  glycan array binding signal (z-score): -0.329
[11]
  glycan array binding signal (z-score): -0.328
[12]
  glycan array binding signal (z-score): -0.36
[13]
  glycan array binding signal (z-score): -0.381
[14]
  glycan array binding signal (z-score): -0.355
[15]
  glycan array binding signal (z-score): -0.367
[16]
  glycan array binding signal (z-score): -0.335
[17]
  glycan array binding signal (z-score): -0.37
[18]
  glycan array binding signal (z-score): -0.363
[19]
  glycan array binding signal (z-score): -0.352
[20]
  glycan array binding signal (z-score): -0.348
[21]
  glycan array binding signal (z-score): -0.357
[22]
  glycan array binding signal (z-score): -0.366
[23]
  glycan array binding signal (z-score): -0.182
[24]
  glycan array binding signal (z-score): 0.97
[25]
  glycan array binding signal (z-score): -0.348
[26]
  glycan array binding signal (z-score): -0.35
[27]
  glycan array binding signal (z-score): -0.351
[28]
  glycan array binding signal (z-score): -0.331
[29]
  glycan array binding signal (z-score): -0.311
[30]
  glycan array binding signal (z-score): -0.353
[31]
  glycan array binding signal (z-score): -0.353
[32]
  glycan array binding signal (z-score): -0.361
[33]
  glycan array binding signal (z-score): -0.339
[34]
  glycan array binding signal (z-score): -0.354
[35]
  glycan array binding signal (z-score): -0.366
[36]
  glycan array binding signal (z-score): -0.316
[37]
  glycan array binding signal (z-score): -0.368

Reference: the supplement of paper PMC8728848
